The values that follow come from PubChem BioAssay AID493208 (National Center for Advancing Translational Sciences (NCATS), 2011).

Each structure is given as a SMILES string. Screen size: about 44,000 compounds; about 340 (0.77%) were called active. About 5% were inconclusive and are not listed. The call rests on the fitted dose curve; in most records, active means well fitted inhibition curve with a large enough effect; inconclusive means small, poorly fitted or top-dose-only effect; inactive means flat fitted curve, though single readings scatter. The list shows a part of the results.
Potency means the concentration at half of the fitted maximal effect.

The nature of the experiment: Acumen qHTS Assay for Inhibitors of the mTORC1 Signaling Pathway in MEF (Tsc2-/-, p53-/-) Cells: Sytravon. Further: nearly all actives have a fitted effect of over 50% in size.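 On activity change, negative = inhibition: plate controls were DMSO for no effect and rapamycin for full effect.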 As to conditions: phospho-rpS6 immunofluorescence/PI, 24 h; series mostly up to 38.3 µM; activity change, negative = inhibition: at the top concentration. In short, it runs like this:
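Tsc2-/-, p53-/- mouse embryonic fibroblasts (empty-vector line) exposed to compound 24 hrs at 37 C, fixed, immunostained for phospho-rpS6 and counterstained with propidium iodide. Acumen laser scanning gives % positive cells from Alexa 488/PI ratio, thresholded using 7.5 nM rapamycin; PI count gives viability.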
On to `Cc1ccc(NC(=O)c2c(C)nc3sc(C(=O)Nc4ccc(F)cc4)c(N)c3c2-c2ccccc2Cl)c(C)c1`, for which the “activity change, negative = inhibition” value is inactive: -12.3%. On the same count and under the same terms, then `CCOC(=O)c1c(C)n(-c2ccccc2)c2ccc(OC(=O)c3ccccc3NC(=O)C(C)(C)C)cc12`, with inactive: -1.78%; and `O=C(O)c1cc(-c2ccc(C(F)(F)F)cc2)nc2n[nH]c(-c3ccccc3)c12`, with inactive: 0%.

Turning to `CC(=O)c1ccc(NC(=O)Cn2cc3c(n2)CCCC3)cc1`, the “activity change, negative = inhibition” value was inactive: 0.772%. With `CCc1ccc(S(=O)(=O)c2cn(CC)c3cc(N4CCOCC4)c(F)cc3c2=O)cc1`, the “activity change, negative = inhibition” value was inactive: -5.63%. As for `CCOc1ccc(CN2CCN(c3ncnc4sc5c(c34)CC(C)CC5)CC2)cc1` (configuration not stated), the “activity change, negative = inhibition” value was inactive: -8.31%. The same measure, in the same setting: for `COc1ccccc1C(=O)Nc1nnc(S(=O)(=O)N(C)c2ccc(Cl)cc2)s1` the value was inactive: -11.4%; for `CCOc1ccc2c(c1)c(=O)c(S(=O)(=O)c1ccccc1)cn2CC(=O)Nc1ccccc1OC`, inactive: 2.97%; for `Cc1ccc(CNC(=O)C2CCN(S(=O)(=O)c3ccc4c(c3)CCCN4C(=O)C3CCC3)CC2)cc1`, inactive: -0.552%. For `O=C(NCCSc1c(-c2ccccc2)[nH]c2ccccc12)c1ccc(S(=O)(=O)N2CCOCC2)cc1`, the “activity change, negative = inhibition” value is inactive: -16.8%. For `Cc1nc(-c2ccccc2)sc1CCNS(=O)(=O)c1ccccc1`, the “activity change, negative = inhibition” value was inactive: -0.701%. `COc1ccc(NC(=O)CN2C(=O)CSc3ccc(S(=O)(=O)N4CCCC4)cc32)cc1OC`: the “activity change, negative = inhibition” value was inactive: 2.66%. `CCOc1ccc(S(=O)(=O)N(CC(=O)NCCc2ccc(OC)c(OC)c2)c2ccccc2)cc1`: the “activity change, negative = inhibition” value was inactive: -17.6%. For the compound `Cc1ccccc1Cn1c(CN2CCC(C(=O)NCCN(C)C)CC2)cc2ccccc21`, the Potency was active: 7.36 µM. `Cc1ccccc1NC(=O)CN1C(=O)C(C)(C)c2ccccc21`: the “activity change, negative = inhibition” value was inactive: -2.42%. Consider `COc1cccc(NC(=O)c2cc3c(=O)n(C)c4ccccc4c3n2C)c1`, for which the “activity change, negative = inhibition” value is inactive: -5.96%. For the compound `CCCCNC(=O)c1cnn2c(C)c(Cc3c(F)cccc3Cl)c(C)nc12`, the “activity change, negative = inhibition” value is inactive: -15.7%. On to `COc1ccc(OC)c(CCNC(=O)c2c(C)oc3ncn(C)c(=O)c23)c1`, for which the “activity change, negative = inhibition” value is inactive: -5.9%. On the same count and under the same terms, for `O=C(CN1C(=O)COc2ccc(S(=O)(=O)N3CCCCCC3)cc21)N1CCN(c2ccc(Cl)cc2)CC1` the value was inactive: -10.7%; for `CCOC(=O)c1ccc(NC(=O)CC(C)n2nc(C)cc2C)cc1` (configuration not stated), inactive: -11.1%. Consider `COc1cc(NC(=O)Cc2noc3ccccc23)cc(OC)c1OC`, for which the “activity change, negative = inhibition” value was inactive: -0.488%.

Turning to `O=c1[nH]c(C2CCCN(S(=O)(=O)c3ccccc3)C2)nc2c1nnn2Cc1ccccc1Br` (configuration not stated), the “activity change, negative = inhibition” value is inactive: -1.67%. The same measure, in the same setting: then `CCOC(=O)c1cccc(NC(=O)Nc2c(C)n(C)n(-c3ccccc3)c2=O)c1`, with inactive: 2.78%; and `Cc1cccc(-n2ncc3c(NNC(=O)c4ccccc4Cl)ncnc32)c1`, with inactive: 2.4%; and `COc1ccc(-c2ccc(=O)n(CC(=O)Nc3cc(OC)ccc3OC)n2)cc1`, with inactive: -1.55%. `Cc1ccc(C)c(Nc2nn3c(=O)c4ccc(C(=O)NCc5ccccc5)cc4nc3s2)c1`: the “activity change, negative = inhibition” value was inactive: -1.23%. Still for that read-out and setting: then `COc1ccc(CNC(=O)c2cc(-c3ccc(Br)s3)nc3ccccc23)cc1`, with inactive: -6.82%; and `COc1cccc(C(=O)Nc2nnc(S(=O)(=O)N3CCCc4ccccc43)s2)c1`, with inactive: 8.71%. Still for that read-out and setting: then `Cc1cccc(C)c1NC(=O)Cn1cc(C(=O)C2CC2)c2ccccc21`, with inactive: -5.66%; and `Cc1nn(CCC(=O)Nc2cccc(C#N)c2)c(C)c1S(=O)(=O)N1CCCCC1`, with inactive: 14.6%.

For the compound `CCCCN(CC)CCCNC(=O)c1cn(C)c(=O)c2c1c1ccccc1n2C`, the “activity change, negative = inhibition” value is inactive: -1.91%. As to `CCc1cnc2c(c1SCc1cc(OC)cc(OC)c1)c(=O)n(C)c(=O)n2C`, the “activity change, negative = inhibition” value is inactive: 0.477%. On to `COc1ccc(OC)c(S(=O)(=O)NCCS(=O)(=O)N2CCN(c3ccccc3F)CC2)c1`, for which the “activity change, negative = inhibition” value was inactive: 0%. Take `CCS(=O)(=O)NCCc1csc2nc(-c3ccc(OC)cc3)nn12`: the “activity change, negative = inhibition” value was inactive: -8.92%.

In the case of `Cc1ccc(C)c(CN2C(=O)c3ccccc3S(=O)c3ccc(C(=O)N4CCCCC4)cc32)c1` (configuration not stated), the “activity change, negative = inhibition” value is inactive: -4.49%. For `COc1ccccc1/C=C/C(=O)Nc1nc2n(n1)C(c1ccc(F)cc1)C=C(c1ccccc1)N2` (configuration not stated), the “activity change, negative = inhibition” value was inactive: -1.81%.

For `Cc1ccc(OCCn2c(C3CC(=O)N(Cc4ccc(F)cc4)C3)nc3ccccc32)c(C)c1` (configuration not stated), the “activity change, negative = inhibition” value is inactive: -5.23%. The same measure, in the same setting: for `CSc1ncc(C(=O)NCc2cccc(C)c2)c(-c2ccccc2)n1` the value was inactive: 1.62%. The same measure, in the same setting: then `C=CCc1ccccc1OCCSc1nc(-c2ccccc2F)nc2cc(=O)[nH]n12`, with inactive: -0.243%.

Turning to `O=S(=O)(NCC(c1ccccc1)N1CCc2ccccc21)c1ccc(Cl)cc1` (configuration not stated), the “activity change, negative = inhibition” value is inactive: 0.221%. The same measure, in the same setting: for `COc1ccc(C(=O)c2cn(Cc3ccccc3OC)c3cc4c(cc3c2=O)OCO4)cc1` the value was inactive: 2.47%; for `COC(=O)c1ccc(NC(=O)CC2C(=O)N(c3ccccc3)C(=O)N2Cc2cccs2)cc1` (configuration not stated), inactive: -7.92%; for `CCN(CC)C(=O)c1sc2c(c1C)c(=O)n(-c1ccc(OC)cc1OC)c(=O)n2CC(=O)Nc1ccccc1`, inactive: 0.382%. Still for that read-out and setting: then `Cc1cccc(N2CCN(c3nc4ccccc4c4nnc(C)n34)CC2)c1C`, with inactive: -7.2%; and `COc1ccc(CNC(=O)Cn2cccc2C(=O)c2ccccc2C)cc1`, with inactive: -3.16%. With `Cc1cccc(NC(=O)c2c(NC(=O)c3ccccc3)sc3c2CCC3)c1`, the “activity change, negative = inhibition” value is inactive: 3%.

For `Cc1cc(C)cc(-n2ccnc2SCC(=O)Nc2ccccc2F)c1`, the “activity change, negative = inhibition” value was inactive: -3.54%.
